Data: PMC6919601, “Identification of Plasmodium dipeptidyl aminopeptidase allosteric inhibitors by high throughput screening” (PLoS ONE, 2019)
Among all 110,000 compounds or so, about 230 (0.21%) showed an effect of 50% or more. Some of the results follow.

target: DPAP1 (Plasmodium falciparum, UniProt Q8IIJ9); test: primary screen, percent inhibition; read by cleavage of a fluorogenic dipeptide substrate; higher = more effect of the substance; design: species or system P. falciparum D10 trophozoite lysates; single well
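Further: 30 min substrate incubation versus DMSO and 10 µM JCP410 controls.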

Chain of DPAP1 (Q8IIJ9 whole entry, looked up): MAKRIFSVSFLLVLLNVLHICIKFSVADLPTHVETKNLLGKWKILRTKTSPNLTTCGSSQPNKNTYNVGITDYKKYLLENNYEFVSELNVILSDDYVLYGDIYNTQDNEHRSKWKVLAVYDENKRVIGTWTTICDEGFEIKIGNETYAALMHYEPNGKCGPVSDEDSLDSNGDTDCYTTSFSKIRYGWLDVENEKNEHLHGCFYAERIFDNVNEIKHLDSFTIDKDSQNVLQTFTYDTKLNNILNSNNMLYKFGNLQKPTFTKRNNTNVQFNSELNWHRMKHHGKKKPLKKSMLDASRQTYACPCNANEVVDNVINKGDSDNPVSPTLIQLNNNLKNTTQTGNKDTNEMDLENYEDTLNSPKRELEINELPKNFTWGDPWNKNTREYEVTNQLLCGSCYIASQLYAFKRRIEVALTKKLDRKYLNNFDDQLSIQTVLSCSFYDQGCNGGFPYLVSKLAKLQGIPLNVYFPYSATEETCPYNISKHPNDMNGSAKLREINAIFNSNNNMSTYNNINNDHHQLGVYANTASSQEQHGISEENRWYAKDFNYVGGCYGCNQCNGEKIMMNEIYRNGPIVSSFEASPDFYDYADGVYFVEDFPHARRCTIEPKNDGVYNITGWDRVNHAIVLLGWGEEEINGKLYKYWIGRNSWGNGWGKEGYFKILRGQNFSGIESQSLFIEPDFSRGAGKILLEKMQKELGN

Compound	% Inhibition @ 10 uM
COc1cc(C2NC(C(=O)O)Cc3c2[nH]c2ccccc32)cc(OC)c1O (centres unmarked)	4.89%
Cc1ccc2c(c1)-c1c(cnn1CC(=O)NC1CCCCC1)CO2	3.54%
COc1cc(NCc2cccs2)cc(OC)c1	-3.27%
COc1ccc(-c2nnn3c2nc(N2CCC(C)CC2)c2ccccc23)cc1	-4.69%
CCN(CC)S(=O)(=O)c1ccc(C#N)cc1	2.94%
CCOC(=O)CN(C)Cc1ccc(Cl)c(Cl)c1	1.62%
CN(Cc1ccccc1)C(C(=O)NC1CCCC1)c1ccccc1 (centres unmarked)	0.457%
CC(C)(C)NC(=O)c1oc2ccccc2c1NC(=O)Cc1ccc(F)cc1	-0.528%
Cc1cc(C)n2nc(-c3cccc(Br)c3)cc2n1	4.67%
CC1CCC(C(C)C)C(=O)/C1=C\c1cnc(-c2ccccc2)nc1 (centres unmarked)	10.8%
CN(CCC#N)C(=O)c1cc2c(=O)n3ccccc3nc2n1C	3.92%
CCc1ccc(N2C(=O)CSC2c2ccc(Br)cc2)cc1 (centres unmarked)	-0.414%
CCOc1ccc(/C=C2/SC(Nc3ccccc3O)=NC2=O)cc1	11.6%
C1=CC2CC1CC2CN1CCN(Cc2c[nH]c3ccccc23)CC1 (centres unmarked)	12.2%
Cc1nnc2n(C)c(=O)c3c4c(sc3n12)CCC4	-5.28%
N#Cc1c(-c2ccccc2)cc(-c2ccccc2)nc1N1CCOCC1	-1.38%
CCOc1ccc(C(=O)C2=C(O)C(=O)N(CCN(CC)CC)C2c2ccc(OC)cc2)cc1C (centres unmarked)	-0.178%
CC(=O)n1c2c(c3ccccc31)CCCC2=O	1.83%
Cc1cc(OCC(=O)N2CCCC2)c2c(C)c(Cc3ccccc3)c(=O)oc2c1	-0.386%
c1cnc2cc3c(cc2n1)Nc1nonc1N3	-1.29%
Fc1ccccc1-c1nn2c(COc3ccccc3)nnc2s1	1.74%
CC1CCN(C(=O)COc2ccc(S(=O)(=O)NC3CCCCC3)cc2)CC1	2.98%
Cc1ccc(-n2ncc(C(=O)NCCCN3CCCCC3)c2-n2cccc2)cc1	3.38%
Cc1cccc(OCC(=O)Nc2ccc(Nc3ccccc3)cc2)c1	-2.3%
Cc1ccc(/C=C2\SC(N3CCCCC3)=NC2=O)cc1	13.2%
O[C@]12CCCC[C@@H]1[C@@H](c1cccnc1)NCC2	4.89%

Compound	% Inhibition @ 10 uM
COc1ccccc1C(CC(=O)Nc1nccs1)c1ccc2c(c1)OCO2 (centres unmarked)	-1.6%
CC(Cc1c[nH]c2ccccc12)NCc1ccc(N(C)C)cc1 (centres unmarked)	9.68%
Cc1cccc(NS(=O)(=O)c2cccc(C(=O)Nc3ccccc3C)c2)c1	1.64%
Cc1cccc(C(=O)NCc2ccco2)c1	5.09%
COc1ccc(/C=C2/S/C(=N\c3ccccc3)N(C)C2=O)c(C)c1	-7.9%
Cc1cc(C)cc(NS(=O)(=O)c2ccc(NC(=O)COc3ccccc3)cc2)c1	0.245%
O=C(Cn1ncc2ccsc2c1=O)N1CCC2(CC1)OCCO2	0.44%
CCOc1ccc(/N=C2/S/C(=C\c3cccs3)C(=O)N2CC)cc1	-9.56%
O=C1c2cccnc2C(=O)N1CCc1ccc(S(=O)(=O)N2CCN(Cc3ccccc3)CC2)cc1	-1.43%
c1cc2c(cc1C13CC4CC(CC(C4)C1)C3)c1c3n2CCNC3CCC1 (centres unmarked)	-1.61%
O=C1N/C(=C/c2ccc(F)cc2)C(=O)N1Cc1ccccc1F	-1.32%
Cc1cc(-c2[nH]nc3c2C(c2c(C)nn(-c4ccccc4)c2Cl)C(C#N)=C(N)O3)c(C)s1 (centres unmarked)	2.38%
CCC(CC)C(=O)Nc1cc(Cl)ccc1OC	1.84%
COc1ccccc1/C=C/c1nc(C#N)c(N2CC(C)OC(C)C2)o1 (centres unmarked)	-0.808%
CC(C)Cn1cc(NC(=O)N(Cc2ccco2)C(C)c2ccccc2)c2ccccc2c1=O (centres unmarked)	-7.53%
CCOCCCNC(=O)c1ccc2c(c1)nc(C)n2-c1cc(OC)c(OC)c(OC)c1	-2.17%
CCN(CC)CC#CCC(C)OC(C)(C)C (centres unmarked)	-2.32%
CCCn1c2ccccc2c2cnn(CC(=O)NCc3ccc(F)cc3)c(=O)c21	0.483%
COCCOC(=O)C1=C(C)NC(=O)NC1c1cn(-c2ccccc2)nc1-c1ccc(OC)cc1 (centres unmarked)	-0.178%
CCCCN(CC)CCNC(=O)Cn1cnc2onc(-c3ccc(F)cc3)c2c1=O	-7.87%
O=C(c1scc2c1CCCC2)N1CCCC1	1.35%
CC[C@H](NC(=O)C(CC1CCCCC1)C(=O)N[C@@H](CC)C(=O)c1nc2ccccc2o1)C(=O)c1nc2ccccc2o1	7.14%
CCOc1ccc2nc(Nc3ncnc4onc(-c5ccc(Cl)cc5)c34)sc2c1	-3.95%
CCOC(=O)C1=C(C)N=c2s/c(=C\c3ccc(Cl)cc3)c(=O)n2C1c1ccc(N(C)C)cc1 (centres unmarked)	2%
N#Cc1cccc(NC(=O)Nc2ccc(Cl)cc2)c1	-4.15%
OC[C@@H]1OC(Nc2ccc(OC(F)(F)F)cc2)[C@H](O)[C@@H](O)[C@@H]1O (some centres unmarked)	2.49%

Compound	% Inhibition @ 10 uM
C#CCSc1nc2c(c(=O)n1C)C1(CCCCC1)Cc1ccccc1-2	-3.38%
COc1ccc(NC(=O)CSc2nc(-c3cccc(OC)c3)ccc2C#N)cc1	0.658%
O=S(=O)(NCC1CCN(S(=O)(=O)c2ccccc2)CC1)c1ccccc1	-3.72%
Cc1ccc(-c2nc(CSCC(=O)NC(C)C)c(C)o2)cc1	2.37%
O=C1c2cccnc2C(=O)N1Cc1ccc(S(=O)(=O)N2CCN(Cc3ccccc3)CC2)cc1	-3.36%
CCn1cc(CCC(=O)NCc2ccc3c(c2)OCO3)c2ccccc21	-4.04%
COc1ccc(C(=O)c2cnc3ccc(F)cc3c2S(=O)(=O)c2ccccc2)cc1	-10.2%
CCC1CCCCN1CCCNC(=O)c1cc2cc3ccc(C)cc3nc2o1 (centres unmarked)	-3.35%
Cc1ccc(N2C(=O)C3CC=CCC3C2=O)c(C)c1 (centres unmarked)	-12.4%
CCOC(=O)N1CCC(NC(=O)CSCc2nc(-c3ccccc3Cl)oc2C)CC1	5.56%
COc1ccc(CCNS(=O)(=O)c2ccc(OC)c(C)c2)cc1	-5.14%
COc1ccc(CN2C(=O)CC(=O)NC2=O)cc1	-5.9%
COc1ccc(-c2cc(=O)oc3c4c(ccc23)OCN(Cc2ccc(OC)c(OC)c2)C4)cc1	0.685%
Cc1ccc(S(=O)(=O)CC2CSc3nc4ccccc4n32)cc1 (centres unmarked)	3.73%
CC1CN(S(=O)(=O)c2ccc(Cl)cc2)C(C)CN1S(=O)(=O)c1ccc(Cl)cc1 (centres unmarked)	-0.116%
O=C(Cn1nc(Cc2cccnc2)c2ccccc2c1=O)NCc1cccs1	-12.4%
Cc1ccc(O)c(C(CC(=O)N2CCCCC2)c2ccccc2)c1 (centres unmarked)	2.32%
COc1ccc(C(=O)NCc2ccccn2)cc1OC	-0.318%
COc1ccccc1CN1CCCC(O)C1 (centres unmarked)	2.33%
COc1cccc(-c2nc3ccccc3s2)c1	-5.46%
CN(C)c1ccc(/C=C2\C(=O)NC(=S)N(c3ccc(Cl)cc3)C2=O)cc1	-3.38%
O=C(CSc1nnc(COc2ccccc2)o1)N1CCOCC1	6.13%
CCOC(=O)c1cc(-c2ccc(OC)c(S(=O)(=O)NCCC3=CCCCC3)c2)on1	0.92%
Cc1cccc2cc(-c3ccc(F)cc3)cn12	1.52%
Cc1ccn2cc(-c3ccc(Cl)cc3)cc2c1	-1.6%
COc1cc(C)c(Cl)c(C)c1S(=O)(=O)N1CC(C)OC(C)C1 (centres unmarked)	-1.43%

Compound	% Inhibition @ 10 uM
Cc1ccc(S(=O)(=O)n2nc(-c3ccc(Cl)cc3)nc2N)cc1	-2.74%
COc1ccc(-c2nnc3sc(NC(=O)c4ccccc4)nn23)cc1	3.3%
CC(=O)c1ccc(N2CCN(Cc3ccccc3Br)CC2)cc1	3.48%
CN1C(=O)C(=Cc2c[nH]nc2-c2ccccc2)C(=O)N(C)C1=O	15.9%
CC(=O)N1C(C(=O)O)CSC1c1cccc(C)c1 (centres unmarked)	-7.5%
O=C(O)c1ccc2c(c1)C(=O)N(c1ccc(O)cc1)C2=O	-3.16%
CC1CN(c2ccc([N+](=O)[O-])c3cccnc23)CC(C)N1 (centres unmarked)	-1.29%
COc1ccc(CNC2CCCCC2C)c2ccccc12 (centres unmarked)	-3.35%
COc1cccc(NC(=O)c2cccc(Br)c2)c1	-3.03%
Cc1ccc(Cl)cc1-n1ncc2c(N3CCN(C)CC3)ncnc21	0.925%
COc1ccc(C2C(C(=O)Nc3ccc(F)cc3)=C(C)Nc3nc(-c4cccs4)nn32)c(OC)c1 (centres unmarked)	-2.86%
CC(C)(C)OC(=O)N1CCC(n2nnc(C(N)=O)c2N)CC1	3.88%
COc1cc2c(cc1OC)C(C)N(c1ncnc3onc(C)c13)CC2 (centres unmarked)	-5.75%
CCCSc1ccc2nc(-c3ccccc3)cn2c1	2.62%
CC1CC(c2nc(N)cs2)CCO1 (centres unmarked)	-1.99%
COC(=O)c1c(N)n(-c2cc(C)cc(C)c2)c2nc3ccccc3nc12	3.39%
COc1ccc(C(CC(=O)O)NC(=O)c2cc3cc(Br)ccc3oc2=O)cc1OC (centres unmarked)	2.7%
CCc1cc2c(cc3c(=O)n(CCCC(=O)NCCc4ccccc4)ncn32)s1	6.35%
O=C(Cn1ccc2cc(S(=O)(=O)N3CCCCC3)ccc21)N1CCN(c2ccccn2)CC1	-1.63%
CCOc1ccc(CCNC(=O)CCS(=O)(=O)c2ccc(Br)cc2)cc1OCC	5.85%
CCC1CCCCN1CCCNC(=O)c1noc2c1COc1ccc(C)cc1-2 (centres unmarked)	-5.3%
CCCCc1ccc(NC(=O)c2cnccn2)cc1	2.91%
O=C(O)c1cccc(-c2ccc(/C=C/c3cc(C(F)(F)F)nc(O)n3)o2)c1	12.3%
